# Reference: the supplement of paper PMC8728848
# The list shows a part of the results.
# Columns and labels:
# Experiment in all cases: glycan array binding signal (z-score within array); higher = stronger binding
# Details in all cases: glycan notation: IUPAC condensed, linker removed
# [1] = target: Gal(b1-3)GlcNAc(b1-3)Gal(b1-4)[Fuc(a1-3)]GlcNAc(b1-6)[Gal(b1-3)GlcNAc(b1-3)]Gal(b1-4)Glc
# In short: (§1)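 Glycan array data were curated from 3228 arrays in the Consortium for Functional Glycomics database and kept only where the protein sequence was available. Glycan names were converted to IUPAC-condensed notation, and columns mapping to the same glycan were averaged. The binding signal is a within-array Z-score, averaged across arrays of the same protein sequence at different concentrations or buffers and across linkers. Negative Z-scores can be read as non-binding.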
# [2] = target: Gal(b1-3)GlcNAc(b1-3)GalNAc
# In short: as §1
# [3] = target: Gal(b1-3)GlcNAc(b1-6)Gal(b1-4)GlcNAc
# In short: as §1
# [4] = target: Gal(b1-3)[Fuc(a1-4)]GlcNAc
# In short: as §1
# [5] = target: Gal(b1-3)[Fuc(a1-4)]GlcNAc(b1-2)Man(a1-3)[Gal(b1-3)[Fuc(a1-4)]GlcNAc(b1-2)Man(a1-6)]Man(b1-4)GlcNAc(b1-4)GlcNAc
# In short: as §1
# [6] = target: Gal(b1-3)[Fuc(a1-4)]GlcNAc(b1-2)Man(a1-3)[Gal(b1-3)[Fuc(a1-4)]GlcNAc(b1-2)Man(a1-6)]Man(b1-4)GlcNAc(b1-4)[Fuc(a1-6)]GlcNAc
# In short: as §1
# [7] = target: Gal(b1-3)[Fuc(a1-4)]GlcNAc(b1-3)Gal(b1-3)[Fuc(a1-4)]GlcNAc
# In short: as §1
# [8] = target: Gal(b1-3)[Fuc(a1-4)]GlcNAc(b1-3)Gal(b1-4)GlcNAc
# In short: as §1
# [9] = target: Gal(b1-3)[Fuc(a1-4)]GlcNAc(b1-3)Gal(b1-4)[Fuc(a1-3)]GlcNAc
# In short: as §1
# [10] = target: Gal(b1-3)[GlcNAc(b1-6)]GalNAc
# In short: as §1
# [11] = target: Gal(b1-3)[Neu5Ac(a2-6)]GalNAc
# In short: as §1
# [12] = target: Gal(b1-3)[Neu5Ac(a2-6)]GlcNAc(b1-6)Gal(b1-4)Glc
# In short: as §1
# [13] = target: Gal(b1-3)[Neu5Ac(b2-6)]GalNAc
# In short: as §1
# [14] = target: Gal(b1-4)Gal
# In short: as §1
# [15] = target: Gal(b1-4)GalNAc(a1-3)[Fuc(a1-2)]Gal(b1-4)GlcNAc
# In short: as §1
# [16] = target: Gal(b1-4)GalNAc(b1-3)[Fuc(a1-2)]Gal(b1-4)GlcNAc
# In short: as §1
# [17] = target: Gal(b1-4)Glc
# In short: as §1
# [18] = target: Gal(b1-4)Glc6S
# In short: as §1
# [19] = target: Gal(b1-4)GlcNAc
# In short: as §1
# [20] = target: Gal(b1-4)GlcNAc(a1-6)Gal(b1-4)GlcNAc
# In short: as §1
# [21] = target: Gal(b1-4)GlcNAc(b1-2)Man(a1-3)Man(b1-4)GlcNAc(b1-4)GlcNAc
# In short: as §1
# [22] = target: Gal(b1-4)GlcNAc(b1-2)Man(a1-3)[Gal(b1-4)GlcNAc(b1-2)Man(a1-6)]Man(b1-4)GlcNAc(b1-4)GlcNAc
# In short: as §1
# [23] = target: Gal(b1-4)GlcNAc(b1-2)Man(a1-3)[Gal(b1-4)GlcNAc(b1-2)Man(a1-6)]Man(b1-4)GlcNAc(b1-4)[Fuc(a1-6)]GlcNAc
# In short: as §1
# [24] = target: Gal(b1-4)GlcNAc(b1-2)Man(a1-3)[Gal(b1-4)GlcNAc(b1-2)][GlcNAc(b1-4)]Man(b1-4)GlcNAc(b1-4)GlcNAc
# In short: as §1
# [25] = target: Gal(b1-4)GlcNAc(b1-2)Man(a1-3)[GlcNAc(b1-2)Man(a1-6)]Man(b1-4)GlcNAc(b1-4)GlcNAc
# In short: as §1
# [26] = target: Gal(b1-4)GlcNAc(b1-2)Man(a1-3)[Man(a1-6)]Man(b1-4)GlcNAc(b1-4)GlcNAc
# In short: as §1
# [27] = target: Gal(b1-4)GlcNAc(b1-2)Man(a1-6)Man(b1-4)GlcNAc(b1-4)GlcNAc
# In short: as §1
# [28] = target: Gal(b1-4)GlcNAc(b1-2)Man(a1-6)[GlcNAc(b1-2)Man(a1-3)]Man(b1-4)GlcNAc(b1-4)GlcNAc
# In short: as §1
# [29] = target: Gal(b1-4)GlcNAc(b1-2)Man(a1-6)[Man(a1-3)]Man(b1-4)GlcNAc(b1-4)GlcNAc
# In short: as §1
# [30] = target: Gal(b1-4)GlcNAc(b1-2)[Gal(b1-4)GlcNAc(b1-4)]Man(a1-3)[Gal(b1-4)GlcNAc(b1-2)Man(a1-6)]Man(b1-4)GlcNAc(b1-4)GlcNAc
# In short: as §1
# [31] = target: Gal(b1-4)GlcNAc(b1-2)[Gal(b1-4)GlcNAc(b1-4)]Man(a1-3)[Gal(b1-4)GlcNAc(b1-2)[Gal(b1-4)GlcNAc(b1-6)]Man(a1-6)]Man(b1-4)GlcNAc(b1-4)GlcNAc
# In short: as §1
# [32] = target: Gal(b1-4)GlcNAc(b1-2)[Gal(b1-4)GlcNAc(b1-4)]Man(a1-3)[GlcNAc(b1-4)][Gal(b1-4)GlcNAc(b1-2)Man(a1-6)]Man(b1-4)GlcNAc(b1-4)GlcNAc
# In short: as §1
# [33] = target: Gal(b1-4)GlcNAc(b1-2)[Gal(b1-4)GlcNAc(b1-6)]Man(a1-6)[GlcNAc(b1-4)][Gal(b1-4)GlcNAc(b1-2)Man(a1-3)]Man(b1-4)GlcNAc(b1-4)GlcNAc
# In short: as §1
# [34] = target: Gal(b1-4)GlcNAc(b1-3)Gal(b1-3)GlcNAc
# In short: as §1
# [35] = target: Gal(b1-4)GlcNAc(b1-3)Gal(b1-4)Glc
# In short: as §1
# [36] = target: Gal(b1-4)GlcNAc(b1-3)Gal(b1-4)GlcNAc
# In short: as §1
# [37] = target: Gal(b1-4)GlcNAc(b1-3)Gal(b1-4)GlcNAc(b1-3)Gal(b1-4)GlcNAc
# In short: as §1
# [38] = target: Gal(b1-4)GlcNAc(b1-3)Gal(b1-4)[Fuc(a1-3)GlcNAc(b1-6)]Gal(b1-4)Glc
# In short: as §1
# [39] = target: Gal(b1-4)GlcNAc(b1-3)Gal(b1-4)[Fuc(a1-3)]GlcNAc(b1-3)Gal(b1-4)[Fuc(a1-3)]GlcNAc
# In short: as §1
# [40] = target: Gal(b1-4)GlcNAc(b1-3)GalNAc
# In short: as §1
# [41] = target: Gal(b1-4)GlcNAc(b1-3)[Gal(b1-4)GlcNAc(b1-6)]Gal(b1-4)GlcNAc
# In short: as §1
# [42] = target: Gal(b1-4)GlcNAc(b1-3)[Gal(b1-4)GlcNAc(b1-6)]GalNAc
# In short: as §1
# [43] = target: Gal(b1-4)GlcNAc(b1-3)[GlcNAc(b1-6)]Gal(b1-4)GlcNAc
# In short: as §1
# [44] = target: Gal(b1-4)GlcNAc(b1-6)Gal(b1-4)GlcNAc
# In short: as §1
# [45] = target: Gal(b1-4)GlcNAc(b1-6)GalNAc
# In short: as §1
binder,measurement,setting,value
Gal 7 (Canis lupus) (protein) MAGSSNVPHKTSLPEGIRVGTVMRIRGVVPNKAGRFYVNLLCGEAPGSEAALHFNPRLDESTVVFNTLEQGAWGREERGTGIPFQRGQPFDVLLIATDEGFKAVVGDSEYHHFRYRIPPARVRLLEVGGDLQLESVSVF,glycan array binding signal (z-score),[1],0.487
same,glycan array binding signal (z-score),[2],-0.194
same,glycan array binding signal (z-score),[3],-0.093
same,glycan array binding signal (z-score),[4],-0.208
same,glycan array binding signal (z-score),[5],-0.166
same,glycan array binding signal (z-score),[6],-0.199
same,glycan array binding signal (z-score),[7],-0.219
same,glycan array binding signal (z-score),[8],-0.147
same,glycan array binding signal (z-score),[9],-0.211
same,glycan array binding signal (z-score),[10],-0.214
same,glycan array binding signal (z-score),[11],-0.206
same,glycan array binding signal (z-score),[12],-0.206
same,glycan array binding signal (z-score),[13],-0.196
same,glycan array binding signal (z-score),[14],-0.177
same,glycan array binding signal (z-score),[15],0.063
same,glycan array binding signal (z-score),[16],-0.208
same,glycan array binding signal (z-score),[17],-0.206
same,glycan array binding signal (z-score),[18],-0.202
same,glycan array binding signal (z-score),[19],-0.21
same,glycan array binding signal (z-score),[20],-0.207
same,glycan array binding signal (z-score),[21],-0.173
same,glycan array binding signal (z-score),[22],-0.103
same,glycan array binding signal (z-score),[23],-0.074
same,glycan array binding signal (z-score),[24],-0.187
same,glycan array binding signal (z-score),[25],-0.198
same,glycan array binding signal (z-score),[26],-0.175
same,glycan array binding signal (z-score),[27],-0.214
same,glycan array binding signal (z-score),[28],-0.189
same,glycan array binding signal (z-score),[29],-0.197
same,glycan array binding signal (z-score),[30],0.093
same,glycan array binding signal (z-score),[31],0.169
same,glycan array binding signal (z-score),[32],-0.131
same,glycan array binding signal (z-score),[33],-0.139
same,glycan array binding signal (z-score),[34],1.81
same,glycan array binding signal (z-score),[35],1.45
same,glycan array binding signal (z-score),[36],2.22
same,glycan array binding signal (z-score),[37],3.2
same,glycan array binding signal (z-score),[38],-0.172
same,glycan array binding signal (z-score),[39],-0.155
same,glycan array binding signal (z-score),[40],-0.213
same,glycan array binding signal (z-score),[41],-0.144
same,glycan array binding signal (z-score),[42],-0.169
same,glycan array binding signal (z-score),[43],-0.147
same,glycan array binding signal (z-score),[44],-0.206
same,glycan array binding signal (z-score),[45],-0.213
